Values joined by “and” are separate entries in the source; they are usually repeats but may differ in a detail not shown here. Equal entries are not always repeated. The shares of active, inactive and inconclusive entries below differ from those in the screen. For some of these results: Potencies beside an inconclusive call are fits to weak or partial responses and may not hold up. Active and inactive are the calls of the source. Unless noted, the call rests on the fitted dose curve; in most records, active means well fitted curve in the direction sought with a large enough effect in the repeat runs; inconclusive means weak or mixed curves; inactive means no such curve, though single readings can be large; an effect the other way counts as inactive or inconclusive.
Tests used:
[1] = qHTS assay to identify small molecule antagonists of the peroxisome proliferator-activated receptor gamma (PPARg) signaling pathway - cell viability counter screen (AID 743194); conditions: PPARg-bla HEK293H viability, CellTiter-Glo luminescence, 17 h, co-treated with 50 nM rosiglitazone; activity change, negative = cytotoxicity: at 62.6 µM (top of the series); further: nearly all actives have a fitted effect of over 55% in size; further: potency means the concentration at half of the fitted maximal effect
Procedure, shortened: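 PPARg-UAS-bla HEK293H cells were plated, rested 5 h at 37 C, then treated with compounds plus rosiglitazone (50 nM final) for 17 h at 37 C; viability was then read by CellTiter-Glo luminescence after 30 min at room temperature.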

[2] = qHTS assay for small molecule activators of the heat shock response signaling pathway (AID 743210; active means well fitted activation curve with a large enough effect in the signal ratio in the repeat runs, with a control signal flat, not every such curve was filed as active; inconclusive means weak or mixed curves; the % refers to the signal ratio; further: potency means the concentration at half of the fitted maximal effect; on activation: on the % scale 0 is the no-effect control and ±100 the full control effect); conditions: HeLa HSE-bla reporter, beta-lactamase ratio, 5 h; activation: at 62.6 µM (top of the series)
Procedure, shortened: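 Heat shock element–beta-lactamase HeLa reporter cells; qHTS with compounds for 5 h at 37 C; detection by FRET substrate fluorescence after 2.5 h at RT.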

[3] = qHTS assay for small molecule agonists of the antioxidant response element (ARE) signaling pathway (AID 743202; active means well fitted activation curve with a large enough effect in the signal ratio in the repeat runs, not every such curve was filed as active; inconclusive means weak or mixed curves, or effect the other way; inactive means no such curve, though single readings can be large or run the other way; the % refers to the signal ratio; further: potency means the concentration at half of the fitted maximal effect; on activation: on the % scale 0 is the no-effect control and ±100 the full control effect); conditions: HepG2 ARE-bla reporter, beta-lactamase FRET, 16 h; activation: at 73.3 µM (top of the series) unless noted
Procedure, shortened: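 Following a 16 h, 37 C exposure of reporter HepG2 cells (ARE-driven beta-lactamase, 2,000 cells/well) to compounds, FRET substrate was applied for 2 h at room temperature and fluorescence intensity recorded.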

[4] = qHTS assay for small molecule activators of the heat shock response signaling pathway - cell viability counter screen (AID 743209); conditions: HSE-bla HeLa viability, CellTiter-Glo luminescence, 5 h; activity change, negative = cytotoxicity: at 62.6 µM (top of the series); further: nearly all actives have a fitted effect of over 50% in size; further: potency means the concentration at half of the fitted maximal effect
Procedure, shortened: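 Cytotoxicity counter screen run in parallel with the HSE beta-lactamase reporter, using the same wells. HeLa HSE-bla cells received compound for 5 h at 37 C; ATP-based CellTiter-Glo luminescence was measured after 30 min at room temperature.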

[5] = molecular target: Vitamin D3 receptor (Homo sapiens) (UniProt P11473); assay: qHTS assay to identify small molecule agonists of the vitamin D receptor (VDR) signaling pathway (AID 743222; calls by dose curve; further: potency means the concentration at half of the fitted maximal effect; on activation: on the % scale 0 is the no-effect control and ±100 the full control effect); conditions: HEK293T VDR-UAS-bla, beta-lactamase FRET ratio, 16 h; activation: at 63.5 µM (top of the series) unless noted
Procedure, shortened: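 Cells carrying a VDR-driven beta-lactamase reporter are seeded at 2,000 per well and rested 4 h. Compounds in DMSO are added for 16 h at 37C, and FRET substrate fluorescence is measured after 2 h at room temperature.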

[6] = qHTS assay to identify small molecule antagonists of the peroxisome proliferator-activated receptor delta (PPARd) signaling pathway - cell viability counter screen (AID 743213); conditions: PPARd-bla HEK293H viability, CellTiter-Glo luminescence, 17 h; viability change, negative = cytotoxic: at 62 µM (top of the series) unless noted; further: nearly all actives have a fitted effect of over 50% in size; further: potency means the concentration at half of the fitted maximal effect
Procedure, shortened: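 HEK293H PPARd UAS-bla cells, 5 h pre-incubation, compound + L165041 300 nM final, 17 h 37 C; B/G FRET substrate 2 h RT; then CellTiter-Glo 30 min RT, luminescence.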

[7] = qHTS assay to identify small molecule agonists of the peroxisome proliferator-activated receptor delta (PPARd) signaling pathway - cell viability counter screen (AID 743211); conditions: PPARd-bla HEK293H viability, CellTiter-Glo luminescence, 17 h; activity change, negative = cytotoxicity: at 62.6 µM (top of the series); further: nearly all actives have a fitted effect of over 55% in size; further: potency means the concentration at half of the fitted maximal effect
Procedure, shortened: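 HEK293H PPARd-bla, 3000 cells/well; 5 h preincubation 37C/5% CO2; cpd in DMSO, 17 h 37C; B/G FRET substrate 2 h RT; CellTiter-Glo 30 min RT, luminescence.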

[8] = molecular target: Peroxisome proliferator-activated receptor delta (Homo sapiens) (UniProt Q03181); assay: qHTS assay to identify small molecule agonists of the peroxisome proliferator-activated receptor delta (PPARd) signaling pathway (AID 743212; calls by dose curve; further: potency means the concentration at half of the fitted maximal effect); conditions: HEK293H PPARd-UAS-bla, beta-lactamase FRET ratio, 17 h; activation: at 62.6 µM (top of the series) unless noted
Procedure, shortened: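 Beta-lactamase reporter read by fluorescence (LiveBLAzer B/G FRET, 2 h, room temperature). Test agents, in DMSO, incubated at 37 C with PPARd-bla HEK293H cells.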

[9] = molecular target: Peroxisome proliferator-activated receptor delta (Homo sapiens) (UniProt Q03181); assay: qHTS assay to identify small molecule antagonists of the peroxisome proliferator-activated receptor delta (PPARd) signaling pathway (AID 743215; active means well fitted inhibition curve with a large enough effect in the signal ratio in the repeat runs, not every such curve was filed as active; inconclusive means weak or mixed curves, or effect the other way; inactive means no such curve, though single readings can be large or run the other way; the % refers to the signal ratio;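 further: cells stimulated with agonist L165041 at 300 nM final during compound exposure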; further: potency means the concentration at half of the fitted maximal effect); conditions: HEK293H PPARd-UAS-bla, beta-lactamase FRET ratio, antagonist, 17 h; ratio activity, negative = inhibition: at 62 µM (top of the series) unless noted
Procedure, shortened: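 Cells: HEK293H with a UAS-driven beta-lactamase reporter responsive to PPARd. Compounds were co-added with L165041 (300 nM, final) and incubated 17 h at 37 C before a 2 h room-temperature FRET substrate step and fluorescence reading.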

[10] = molecular target: Bile acid receptor (Homo sapiens) (UniProt Q96RI1); assay: qHTS assay to identify small molecule antagonists of the farnesoid-X-receptor (FXR) signaling pathway (AID 743217; active means well fitted inhibition curve with a large enough effect in the signal ratio in the repeat runs, not every such curve was filed as active; inconclusive means weak or mixed curves, or effect the other way; inactive means no such curve, though single readings can be large or run the other way; the % refers to the signal ratio; further: potency means the concentration at half of the fitted maximal effect); conditions: HEK293T FXR-UAS-bla, beta-lactamase ratio, CDCA-stimulated, 16 h; activity change, negative = inhibition: at 62.6 µM (top of the series) unless noted
Procedure, shortened: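 Cells carrying a UAS-driven beta-lactamase reporter (GeneBLAzer FXR-UAS-bla HEK 293T) were plated and rested 5 h at 37 °C. Compounds in DMSO were added alongside chenodeoxycholic acid agonist at 50 uM final and left 16 h at 37 °C before FRET substrate readout.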

[11] = qHTS assay to identify small molecule agonists of the farnesoid-X-receptor (FXR) signaling pathway - cell viability counter screen (AID 743218); conditions: FXR-bla HEK293T viability, CellTiter-Glo luminescence, 16 h; viability change, negative = cytotoxic: at 62.6 µM (top of the series) unless noted; further: potency means the concentration at half of the fitted maximal effect; nearly all actives have a fitted effect of over 45% in size
Procedure, shortened: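 Cells were seeded, left 5 h at 37 C and 5% CO2, then dosed with compound in DMSO for 16 h. After the beta-lactamase FRET read, CellTiter-Glo was added and luminescence measured 30 min later.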

[12] = molecular target: Bile acid receptor (Homo sapiens) (UniProt Q96RI1); assay: qHTS assay to identify small molecule agonists of the farnesoid-X-receptor (FXR) signaling pathway (AID 743220; active means well fitted activation curve with a large enough effect in the signal ratio in the repeat runs, not every such curve was filed as active; inconclusive means weak or mixed curves, or effect the other way; the % refers to the signal ratio; further: potency means the concentration at half of the fitted maximal effect); conditions: HEK293T FXR-UAS-bla, beta-lactamase FRET ratio, 16 h; activation: at 62.6 µM (top of the series) unless noted
Procedure, shortened: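 FXR-UAS-bla HEK 293T cells carrying a UAS-driven beta-lactamase reporter were plated for 5 h at 37C/5% CO2, then exposed to DMSO-dissolved Tox21 10K compounds for 16 h at 37C. A LiveBLAzer B/G FRET substrate was loaded for 2 h at room temperature before fluorescence reading.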

[13] = qHTS assay to identify small molecule antagonists of the farnesoid-X-receptor (FXR) signaling pathway - cell viability counter screen (AID 743221; active means well fitted cell-killing curve with a large enough effect in the repeat runs, not every such curve was filed as active; inconclusive means weak or mixed curves, or effect the other way; inactive means no such curve, though single readings can be large or run the other way; further: nearly all actives have a fitted effect of over 50% in size; further: potency means the concentration at half of the fitted maximal effect); conditions: FXR-bla HEK293T viability, CellTiter-Glo luminescence, 16 h; activity change, negative = cytotoxicity: at 62.6 µM (top of the series)
Procedure, shortened: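 Luminescence from CellTiter-Glo measures cytotoxicity in GeneBLAzer FXR-UAS-bla HEK 293T cells. Cells were exposed to compounds with 50 uM chenodeoxycholic acid (final) for 16 h at 37 C, in wells also used for the reporter readout.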

[14] = qHTS assay for small molecule agonists of the antioxidant response element (ARE) signaling pathway - cell viability counter screen (AID 743203; calls by dose curve; further: potency means the concentration at half of the fitted maximal effect; nearly all actives have a fitted effect of over 55% in size); conditions: ARE-bla HepG2 viability, CellTiter-Glo luminescence, 16 h; viability change, negative = cytotoxic: at 73.3 µM (top of the series)
Procedure, shortened: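 Cytotoxicity was tested in parallel with the ARE reporter screen. ARE-bla HepG2 cells were exposed to compounds for 16 hrs, and viability was taken from CellTiter-Glo luminescence.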

[15] = molecular target: Vitamin D3 receptor (Homo sapiens) (UniProt P11473); assay: qHTS assay to identify small molecule antagonists of the vitamin D receptor (VDR) signaling pathway (AID 743223; active means well fitted inhibition curve with a large enough effect in the signal ratio in the repeat runs, not every such curve was filed as active; inconclusive means weak or mixed curves, or effect the other way; inactive means no such curve, though single readings can be large or run the other way; the % refers to the signal ratio; further: on the % scale 0 is the no-effect control and ±100 the full control effect); conditions: VDR-UAS-bla HEK293T, beta-lactamase FRET ratio, 16 h; activity change, negative = inhibition: at 61 µM (top of the series) unless noted
Procedure, shortened: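 Antagonist mode uses 1alpha,25-dihydroxyvitamin D3 at 3 nM final as stimulus. VDR-bla cells receive compounds in DMSO, incubate 16 h at 37C, then a beta-lactamase FRET substrate for 2 h at room temperature before fluorescence measurement.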
Tags describe the fitted curve by direction and shape or compound fluorescence and quenching.

Sequence of UniProt Q96RI1 (Q96RI1 whole entry, looked up): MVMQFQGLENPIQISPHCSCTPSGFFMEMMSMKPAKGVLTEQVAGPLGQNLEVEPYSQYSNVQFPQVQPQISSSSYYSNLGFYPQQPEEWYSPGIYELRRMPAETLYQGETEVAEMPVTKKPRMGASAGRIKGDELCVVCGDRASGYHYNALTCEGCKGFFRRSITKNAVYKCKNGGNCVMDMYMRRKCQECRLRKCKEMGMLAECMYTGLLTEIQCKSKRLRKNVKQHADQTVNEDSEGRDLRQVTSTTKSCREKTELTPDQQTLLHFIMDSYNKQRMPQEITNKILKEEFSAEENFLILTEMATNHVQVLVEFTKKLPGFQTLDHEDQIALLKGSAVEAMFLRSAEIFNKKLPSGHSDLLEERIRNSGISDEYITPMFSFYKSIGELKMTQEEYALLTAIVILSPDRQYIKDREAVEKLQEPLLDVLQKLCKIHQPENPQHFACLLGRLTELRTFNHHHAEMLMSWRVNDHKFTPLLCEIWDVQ
Sequence of UniProt P11473 (P11473 whole entry, looked up): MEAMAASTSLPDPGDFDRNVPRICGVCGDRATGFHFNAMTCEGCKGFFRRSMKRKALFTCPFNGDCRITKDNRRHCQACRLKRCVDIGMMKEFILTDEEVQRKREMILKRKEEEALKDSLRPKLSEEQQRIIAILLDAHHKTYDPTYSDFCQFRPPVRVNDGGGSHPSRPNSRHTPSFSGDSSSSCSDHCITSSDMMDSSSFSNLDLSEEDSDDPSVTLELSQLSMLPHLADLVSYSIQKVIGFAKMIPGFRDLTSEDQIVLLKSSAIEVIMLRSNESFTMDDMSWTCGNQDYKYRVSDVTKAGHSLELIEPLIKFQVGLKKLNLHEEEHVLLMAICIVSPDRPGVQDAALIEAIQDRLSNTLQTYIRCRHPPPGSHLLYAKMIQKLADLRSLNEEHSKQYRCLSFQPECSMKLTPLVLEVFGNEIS
Sequence of UniProt Q03181 (Q03181 whole entry, looked up): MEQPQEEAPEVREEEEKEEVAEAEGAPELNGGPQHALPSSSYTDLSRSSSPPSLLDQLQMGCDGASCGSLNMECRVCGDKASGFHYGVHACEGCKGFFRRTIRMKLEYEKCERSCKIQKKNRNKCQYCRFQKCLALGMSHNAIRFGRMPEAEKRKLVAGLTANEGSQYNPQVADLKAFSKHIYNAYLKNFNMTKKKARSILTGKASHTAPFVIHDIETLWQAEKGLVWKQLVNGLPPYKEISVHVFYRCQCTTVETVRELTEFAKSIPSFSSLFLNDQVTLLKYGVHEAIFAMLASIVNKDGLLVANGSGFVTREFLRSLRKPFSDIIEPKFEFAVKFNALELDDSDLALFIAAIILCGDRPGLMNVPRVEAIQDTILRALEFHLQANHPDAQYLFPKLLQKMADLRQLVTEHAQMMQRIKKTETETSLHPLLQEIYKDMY

O=C(O)c1ccccc1-n1cc(C(=O)O)c(=O)c2cc(Nc3c(F)cc(F)cc3Cl)c(Cl)cc21
Potency [1]: inconclusive: 54.9 µM [rising, single point]
Potency [2]: inactive

CCc1ccccc1
Potency [3]: inactive
Potency [4]: inconclusive: 0.494 µM [cytotoxic, single point]
Potency [5]: inactive

CCc1cc(C(N)=S)ccn1
Potency [3]: inconclusive: 27.1 µM [falling, partial curve, poor fit] and inconclusive: 68.6 µM [rising, partial curve, poor fit]
activation [3]: inconclusive: -18.2%
Potency [4]: inconclusive: 54.5 µM [cytotoxic, partial curve, poor fit]
Potency [6]: inconclusive: 0.863 µM [cytotoxic, full curve, poor fit]

Nc1nc(N)c2nc(CNc3ccc(C(=O)N[C@@H](CCC(=O)O)C(=O)O)cc3)cnc2n1
Potency [1]: inconclusive: 0.0813 µM [cytotoxic, full curve, poor fit]
Potency [3]: inconclusive: 0.0101 µM [rising, full curve]
Potency [2]: inconclusive: 9.47 µM [activator]
Potency [7]: inconclusive: 0.0457 µM [cytotoxic, full curve]
Potency [8]: inconclusive: 57.5 µM [rising, single point]
Potency [6]: inconclusive: 0.0288 µM [cytotoxic, full curve]
Potency [9]: inconclusive: 45.7 µM [fluorescent, partial curve]
Potency [10]: inconclusive: 22.9 µM [rising, partial curve, poor fit]
Potency [11]: inconclusive: 36.3 nM [cytotoxic, full curve, poor fit]
Potency [12]: inconclusive: 25.7 µM [activator, partial curve]
Potency [13]: inconclusive: 0.0724 µM [falling, full curve]
Potency [5]: inconclusive: 45.7 µM [fluorescent, partial curve]

OC[C@H]1O[C@@H]2O[C@H]3[C@H](O)[C@@H](O)[C@@H](O[C@H]4[C@H](O)[C@@H](O)[C@@H](O[C@H]5[C@H](O)[C@@H](O)[C@@H](O[C@H]6[C@H](O)[C@@H](O)[C@@H](O[C@H]7[C@H](O)[C@@H](O)[C@@H](O[C@H]8[C@H](O)[C@@H](O)[C@@H](O[C@H]1[C@H](O)[C@H]2O)O[C@@H]8CO)O[C@@H]7CO)O[C@@H]6CO)O[C@@H]5CO)O[C@@H]4CO)O[C@@H]3CO
Potency [1]: inactive
Potency [3]: inactive
Potency [6]: inactive
Potency [11]: inconclusive: 2.4 nM [rising, full curve, poor fit]

Oc1ccccc1
activity change, negative = cytotoxicity [1]: inconclusive: 31.8%
Potency [3]: inactive
Potency [7]: inactive
Potency [6]: inactive
Potency [11]: inconclusive: 6 nM [rising, full curve, poor fit] and inconclusive: 195 nM [rising, full curve, poor fit]
Potency [12]: inactive

C[C@@H](C1=C(CCN(C)C)Cc2ccccc21)c1ccccn1
Potency [3]: inconclusive: 15 µM [falling, partial curve, poor fit]
Potency [4]: inactive
Potency [8]: inactive
Potency [6]: inactive
Potency [11]: inconclusive: 23700 nM [cytotoxic, single point]

NC(=O)CC[C@@H](N)C(=O)O
activation [3]: inconclusive: -1.58%
Potency [14]: inconclusive: 8.41 µM [cytotoxic, partial curve]
activation [5]: inconclusive: 0.314%
Potency [15]: inactive

CC(C)(C)c1cc(CCC(=O)OCC(COC(=O)CCc2cc(C(C)(C)C)c(O)c(C(C)(C)C)c2)(COC(=O)CCc2cc(C(C)(C)C)c(O)c(C(C)(C)C)c2)COC(=O)CCc2cc(C(C)(C)C)c(O)c(C(C)(C)C)c2)cc(C(C)(C)C)c1O
Potency [3]: inactive

C/C(=C(/OCCOc1ccc(Cl)cc1)c1ccc(Cl)cc1Cl)n1ccnc1
Potency [1]: inconclusive: 15 µM [cytotoxic, partial curve, poor fit]
activation [3]: inconclusive: -49.1%
Potency [2]: inconclusive: 29.8 µM [falling, partial curve]
Potency [7]: inconclusive: 33.5 µM [cytotoxic, single point]
Potency [9]: inconclusive: 33.5 µM [inhibitor, single point]
activity change, negative = inhibition [10]: inconclusive: -4.89%
Potency [12]: inconclusive: 23.7 µM [activator, partial curve]

CN(Cc1cc(Br)cc(Br)c1N)C1CCCCC1
Potency [3]: inconclusive: 29.8 µM [rising, partial curve, poor fit]
Potency [4]: inconclusive: 18.8 µM [cytotoxic, partial curve, poor fit]
Potency [2]: inconclusive: 33.5 µM [falling, partial curve]
Potency [7]: inconclusive: 33.5 µM [cytotoxic, single point]
activity change, negative = inhibition [10]: inconclusive: -43.5%
Potency [11]: inconclusive: 33500 nM [cytotoxic, single point]

C1CCN(CN2CCCCC2)CC1
activation [3]: inconclusive: -4.72%

O=C1c2ccccc2-c2ccccc21
Potency [1]: inactive
Potency [3]: inactive
Potency [13]: inactive

O=C(O)CCCCCCCCCCC(=O)O
Potency [1]: inactive
Potency [3]: inactive
Potency [4]: inactive
Potency [9]: inactive
Potency [10]: inactive
Potency [5]: inactive

CC(C)(C)C1CCC(=O)CC1
Potency [3]: inactive
Potency [4]: inconclusive: 43.6 µM [cytotoxic, partial curve]
Potency [2]: inconclusive: 58.2 µM
Potency [7]: inconclusive: 61.6 µM [cytotoxic, single point]
Potency [9]: inconclusive: 54.9 µM [inhibitor, single point]
activation [12]: inconclusive: 3.36%
